{
  "source": "PubChem BioAssay AID1346428",
  "about": "(National Center for Advancing Translational Sciences (NCATS), 2018)",
  "note": "Among all 48,000 compounds or so, about 1,200 (2.5%) were called active. Not shown: some 2% with an inconclusive outcome.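 How the source made its calls: active means activation of at least 60% and not above a set upper limit (about 1 call in 100 departs from these limits); inconclusive means activation of 40% to 60%, or above that upper limit; inactive means activation under 40%.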 This is one part of the list.",
  "data": [
    {"biological_target": "Probable G-protein coupled receptor 32 (Homo sapiens) (UniProt O75388)", "sequence (O75388 whole entry, looked up)": "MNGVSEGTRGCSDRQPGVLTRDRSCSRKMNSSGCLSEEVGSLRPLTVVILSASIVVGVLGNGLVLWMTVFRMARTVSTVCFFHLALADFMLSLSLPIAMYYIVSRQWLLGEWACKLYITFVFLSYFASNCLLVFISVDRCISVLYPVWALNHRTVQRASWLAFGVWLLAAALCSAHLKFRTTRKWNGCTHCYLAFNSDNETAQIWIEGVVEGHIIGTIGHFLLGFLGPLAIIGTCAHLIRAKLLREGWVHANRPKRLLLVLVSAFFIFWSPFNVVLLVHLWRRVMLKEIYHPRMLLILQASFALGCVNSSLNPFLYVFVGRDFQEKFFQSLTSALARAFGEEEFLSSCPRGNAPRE", "test": "qHTS for Agonists of Human Resolvin D1 Receptor DRV1", "conditions": "CHO-K1 GPR32 beta-arrestin PathHunter luminescence, 90 min; at 76.9 µM; stronger effect = higher value; zero percent set by DMSO-only wells", "description": "Endogenous resolution of inflammation is known to be transduced through various GPCRs and their natural mediators of lipid nature. Resolvin D1 (RvD1) is one of the active players in resolution of acute inflammation through regulation of anti-inflammatory pathways; it is known to enhance phagocytosis of human macrophages, limits neutrophils infiltration, etc. […] The search for GPR32-activating small molecules with anti-inflammatory effects similar to its natural omega-3 derivative ligand in order to use them as research tools for further studies of inflammation and its resolution was the goal of this screening project. For primary screening assay, we used CHO-K1 GPR32 beta-arrestin cell line (DiscoveRx, #93-0321C2A) and the PathHunter(R) beta-Arrestin Assay (DiscoveRx) which measures recruitment of beta-arrestin to the GPR32 and generates chemiluminescent signal. These engineered cells stably transfected with GPR32 co-express GPR32-fused small 42-amino acid fragment of beta-Gal called ProLinktrade mark, and […] -tagged beta-Arrestin fusion protein. When GPR32 is activated by a ligand, it stimulates binding of beta -Arrestin to ProLink-tagged GPR32, and two parts of beta-Gal complement forming a functional enzyme. Upon substrate (PathHunter(R) Detection reagent) addition, beta-Gal hydrolyzes it and generates a chemiluminescent signal.\nThe cells were thawed and plated in thawing media containing F-12 HAM (Invitrogen, #11765-054), 10% FBS (Invitrogen, #10082), 1x Glutamine, and 1x Pen/Strep onto the 175-mm flask for 24 hours. Then, thawing media was replaced with Growth media which contains 800microg/mL Geneticin (Invitrogen, #10131) and 300microg/mL Hygromycin B (Invitrogen, #10687) in addition to described above. For the assay, the cells were harvested at ~80% confluent stage with Cell Dissociation buffer (Gibco, #13151), and seeded at 2,500 cells/ 3microL/well in assay media (PathHunter(R) Cell Plating Reagent, DiscoverX, #93-0563R1B) using MultiDrop Combi dispenser (Thermo Scientific, Logan, UT) onto white solid bottom tissue culture-treated 1536-well plates (Greiner # 789173-F) and allowed to attach overnight at 37 degrees C, 95% humidity, 5% CO2, . Next, 23nL/well of compound solutions in DMSO were added with a Pin Tool (Kalypsis, San Diego, CA) to the assay plates. As the basal control (EC0), 23 nL/well of DMSO was used on each plate. The cells were incubated in the presence of compounds or DMSO for 90 minutes at 37 degrees C, 5% CO2. Subsequently, 1.5microL/well of PathHunter(R) Detection Reagent prepared per the manufacturer's instructions was added to the assay plates with BioRAPTR FRDtrade mark dispenser (Beckman Coulter, San Francisco, CA) and incubated for 1 hour at ambient temperature prior to the measurement of the luminescent signal on ViewLux(R) uHTS Microplate Imager (Perkin Elmer, Waltham, MA).", "values": [
      {"smiles": "COc1ccc(CCn2c(=O)c3cccnc3n(CC(=O)Nc3ccc(C)c(F)c3)c2=O)cc1OC", "activation": "inactive: 5.73%"},
      {"smiles": "COc1ccc(-c2nnc(SCC(=O)Nc3cccc(C(F)(F)F)c3)nc2-c2ccc(OC)cc2)cc1", "activation": "inactive: -10.9%"},
      {"smiles": "CN1C(=O)Cc2cc(S(=O)(=O)N3CCN(c4ccc(Cl)cc4)CC3)ccc21", "activation": "inactive: -20.4%"},
      {"smiles": "CCOC(=O)c1[nH]c2c(c1Cc1ccccc1C)C(=O)CC(c1cc(OC)ccc1OC)C2", "note": "(centres undefined)", "activation": "inactive: -20.1%"},
      {"smiles": "CC(C)COc1ccc(C(=O)Nc2cc3nn(-c4ccccc4)nc3cc2Cl)cc1", "activation": "inactive: 0.579%"},
      {"smiles": "CCc1nn2c(=O)cc(COc3ccc(/C=C(\\C#N)C(=O)Nc4ccc(F)cc4)cc3OC)nc2s1", "activation": "inactive: -4.63%"},
      {"smiles": "COc1cccc(Cn2c(CNS(=O)(=O)c3ccc(F)c(Cl)c3)nc3cccnc32)c1", "activation": "inactive: -18.9%"},
      {"smiles": "O=C(COc1ccccc1)NCCc1csc(-c2ccc(Cl)cc2)n1", "activation": "active: 95%"},
      {"smiles": "O=C(c1ccc2c(c1)OCCO2)N(Cc1cccnc1)c1nc2c(Cl)cccc2s1", "activation": "inactive: -26.6%"},
      {"smiles": "CCOc1ccc(OCC)c(NC(=O)C2CCN(S(=O)(=O)c3c(C)noc3/C=C/c3ccccc3F)CC2)c1", "activation": "inactive: -4.29%"},
      {"smiles": "O=S(=O)(NCC(c1cccs1)S(=O)(=O)c1ccccc1)c1ccc(F)cc1", "note": "(centres undefined)", "activation": "inactive: -10.1%"},
      {"smiles": "CCc1ccc(NC(=O)Cn2c(=O)n(CCC(=O)N3CCc4ccccc4C3)c(=O)c3ccccc32)cc1", "activation": "inactive: -1.21%"},
      {"smiles": "Cc1ccccc1-c1nn2c(=O)cc(CN3CCN(C(=O)/C=C/c4ccccc4)CC3)nc2s1", "activation": "inactive: 31.9%"},
      {"smiles": "CCOc1ccccc1CNC(=O)c1cc(-c2ccc(Cl)s2)nc2ccccc12", "activation": "inactive: -15.4%"},
      {"smiles": "CCn1c2ccccc2c2nnc(SCC(=O)Nc3ccccc3OC)nc21", "activation": "inactive: -5.24%"},
      {"smiles": "Cc1ccccc1S(=O)Cc1ccc(C(=O)N2CCN(c3cccc(C)c3C)CC2)o1", "note": "(centres undefined)", "activation": "inactive: -1.26%"},
      {"smiles": "Cc1ccc(-c2c(CN3CCN(c4cccc(C)c4)C(C)C3)csc2C)cc1", "note": "(centres undefined)", "activation": "inactive: -33.2%"},
      {"smiles": "CC(C)CC(=O)N1c2nc(C(C)C)nn2C2(CCCCC2)[C@@H]2CCCC[C@@H]21", "activation": "inactive: -9.11%"},
      {"smiles": "Cc1ccc2onc(CC(=O)N3CCN(c4ccc(F)cc4)CC3)c2c1", "activation": "inactive: -26%"},
      {"smiles": "CCN(CC)CCNC(=O)c1c(C)oc2ncnc(N3CCOCC3)c12", "activation": "inactive: -7.01%"},
      {"smiles": "Cc1cccc(C)c1OCC(=O)Nc1ncn[nH]1", "activation": "inactive: 36.6%"},
      {"smiles": "CCOc1ccc(CCNC(=O)c2cnc3sc(N(CC)CC)nn3c2=O)cc1OCC", "activation": "inactive: -5.84%"},
      {"smiles": "COC(=O)/C=C\\C(=O)OC", "activation": "inactive: -7.78%"},
      {"smiles": "COC(=O)c1c(NC(=O)c2cc3ccccc3c(=O)o2)sc2c1CCCC2", "activation": "inactive: 7.36%"},
      {"smiles": "CN(CCCNC(=O)c1cc2c(Cl)nc3ccccc3c2s1)Cc1ccccc1", "activation": "inactive: -13.9%"},
      {"smiles": "Cc1c(Cl)cccc1NC(=O)CSc1ncc2c(n1)-c1ccccc1N(C)S2(=O)=O", "activation": "inactive: -11.7%"},
      {"smiles": "Cc1cc(C)c(NC(=O)Cn2cc(S(=O)(=O)Cc3ccccc3F)c3ccccc32)c(C)c1", "activation": "inactive: -16.5%"},
      {"smiles": "COc1ccc(OC)c(CNS(=O)(=O)c2ccc3c(c2)CCCN3C(C)=O)c1", "activation": "inactive: 5.22%"},
      {"smiles": "COc1ccc(NC(=O)Cn2nnc(C(=O)NCCc3ccccc3)c2N)cc1", "activation": "inactive: 26.2%"},
      {"smiles": "CC(=O)c1cccc(NC(=O)C(C)n2c(=O)cc(C)c3c(C)nn(-c4ccccc4)c32)c1", "note": "(centres undefined)", "activation": "inactive: -11.5%"},
      {"smiles": "COc1ccc(CCNC(=O)c2ccc(Nc3nc4ccccc4n4nnnc34)cc2)cc1OC", "activation": "inactive: 43.7%"},
      {"smiles": "COc1ccccc1NC(=O)N(Cc1nnc2n1CCCCC2)c1ccc(F)cc1", "activation": "inactive: 1.56%"},
      {"smiles": "Cc1cccc(N(CC(O)Cn2c3ccccc3c3ccccc32)S(=O)(=O)c2ccc(F)cc2)c1", "note": "(centres undefined)", "activation": "inactive: 24.1%"},
      {"smiles": "O=C(NCCc1ccccc1)c1ccc2c(c1)N(Cc1ccc(F)cc1)C(=O)c1ccccc1S2(=O)=O", "activation": "inactive: -31.8%"},
      {"smiles": "Cc1noc(Cn2c(=O)c3cc4c(cc3n(CC(=O)Nc3ccc(C(C)C)cc3)c2=O)OCO4)n1", "activation": "inactive: -18%"},
      {"smiles": "CC(C)NC(=O)Cc1csc2nc(-c3ccccc3)cn12", "activation": "inactive: 7.83%"},
      {"smiles": "CCc1ccccc1N1CC(c2nc3ccccc3n2CCCCOc2ccccc2OC)CC1=O", "note": "(centres undefined)", "activation": "inactive: 31.1%"},
      {"smiles": "O=C1CCc2cc(S(=O)(=O)NC(C(=O)Nc3ccc(F)cc3)c3ccccc3)ccc2N1", "note": "(centres undefined)", "activation": "inactive: 22.1%"},
      {"smiles": "CNS(=O)(=O)c1ccc(NC(=O)c2nc3nc(C)cc(C(F)F)n3n2)cc1", "activation": "inactive: -6.65%"},
      {"smiles": "COc1cccc(-c2cc(C(F)(F)F)n3nc(-c4ccc(C)cc4)cc3n2)c1", "activation": "inactive: 8.89%"},
      {"smiles": "CCN(c1ccccc1)S(=O)(=O)c1ccc(NC(=O)c2cc(=O)c3c(C)cc(C)cc3o2)cc1", "activation": "inactive: -11.9%"},
      {"smiles": "Cc1nc2nc(CNC(=O)c3cccc(F)c3)nn2c(C)c1CCC(=O)Nc1ccc(F)cc1", "activation": "inactive: 16.6%"},
      {"smiles": "COc1cc2c(cc1OC)C(COc1ccc(F)cc1)N(C(=O)C(C)C)CC2", "note": "(centres undefined)", "activation": "inactive: 31.6%"},
      {"smiles": "O=c1ccc2ccccc2o1", "activation": "inactive: 2.7%"},
      {"smiles": "O=c1n(Cc2ccccc2)nc2n1-c1ccccc1OC2", "activation": "inactive: 4.3%"},
      {"smiles": "CC(C)c1cnc2c(c1SCc1ccc([N+](=O)[O-])cc1)c(=O)n(C)c(=O)n2C", "activation": "inactive: -13.7%"},
      {"smiles": "CCOc1ccc(NS(=O)(=O)c2ccc3[nH]cc(C(=O)N4CCCC4)c(=O)c3c2)cc1", "activation": "inactive: -4.79%"},
      {"smiles": "Cc1cc(O)c2ccccc2c1O", "activation": "active: 80.6%"},
      {"smiles": "COc1ccc(S(=O)(=O)N(Cc2nc(-c3ccccc3)no2)C2CCCCC2)cc1", "activation": "inactive: -25%"},
      {"smiles": "Cc1ccccc1C(=O)NCC(c1ccc(N(C)C)cc1)N1CCCC1", "note": "(centres undefined)", "activation": "inactive: -11.3%"},
      {"smiles": "Fc1ccc(Nc2nc(SCc3ccc(Cl)cc3)nc3ccccc23)cc1", "activation": "inactive: -5.23%"},
      {"smiles": "CNC(=O)C1CCC(Cn2c(=O)c3sccc3n(CC(=O)N3CCCCC3C)c2=O)CC1", "note": "(centres undefined)", "activation": "inactive: -8.76%"},
      {"smiles": "Cc1cccc(-c2noc(-c3cccnc3NCc3ccccc3Cl)n2)c1", "activation": "inactive: -22.6%"},
      {"smiles": "O=S(=O)(NCC(c1ccco1)S(=O)(=O)c1ccccc1)c1cc(F)ccc1F", "note": "(centres undefined)", "activation": "inactive: -12.9%"}
    ]}
  ]
}
